# The supplement of paper PMC4604168 (melanoma cell lines)
# This is one part of the list. Many values rest on one well or one pass, so single values are uncertain.
# System: 501Mel
# Experiment: cell count relative to DMSO control; melanoma cells; higher = more viable cells
# Conditions: library dose: low library concentration; 72 h
# 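Also: cell number obtained by counting DAPI-stained nuclei in high-throughput microscope images with image analysis software, screen run in 1,536-well plates.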
row,Compound,cell count [%]
1,"Cc1cc(N2CCOCC2)cc2[nH]c(-c3c(NC[C@@H](O)c4cccc(Cl)c4)cc[nH]c3=O)nc12 + O=C(Oc1ccc([N+](=O)[O-])cc1)N1CCC(C(O)(c2ccc3c(c2)OCO3)c2ccc3c(c2)OCO3)CC1 [JZL184] (first compound 0.2 µM, partner dose 1 µM)",80.7
2,"COc1cc2c(Oc3ccc4[nH]c(C)cc4c3F)ncnc2cc1OCCCN1CCCC1 [cediranib] + O=C(Oc1ccc([N+](=O)[O-])cc1)N1CCC(C(O)(c2ccc3c(c2)OCO3)c2ccc3c(c2)OCO3)CC1 [JZL184] (first compound 0.4 µM, partner dose 1 µM)",102
3,"CCN(CC)CCNC(=O)c1c(C)[nH]c(/C=C2\C(=O)Nc3ccc(F)cc32)c1C [sunitinib] + C[As](C)SC[C@H](NC(=O)CC[C@H](N)C(=O)O)C(=O)NCC(=O)O [Darinaparsin] (first compound 0.4 µM, partner dose 0.4 µM)",89.5
4,"COc1ccc2c(c1)CCC1C2CCC2(C)C(NCCCCCCN3C(=O)C=CC3=O)CCC12 (configuration not stated) + C/C(O)=C(\C#N)C(=O)Nc1cc(Br)ccc1Br [LFM-A13] (first compound 0.4 µM, partner dose 2 µM)",90.9
5,"COc1cc2c(Oc3ccc4[nH]c(C)cc4c3F)ncnc2cc1OCCCN1CCCC1 [cediranib] + Cc1cc(SCc2sc(-c3ccc(C(F)(F)F)c(F)c3)nc2C)ccc1OCC(=O)O [GW0742] (first compound 0.4 µM, partner dose 2 µM)",93.6
6,"Cn1cncc1[C@@](N)(c1ccc(Cl)cc1)c1ccc2c(c1)c(-c1cccc(Cl)c1)cc(=O)n2C [tipifarnib] + Cc1cc(SCc2sc(-c3ccc(C(F)(F)F)c(F)c3)nc2C)ccc1OCC(=O)O [GW0742] (first compound 0.01 µM, partner dose 2 µM)",90.4
7,"O=C(Nc1ccccc1)c1cc([N+](=O)[O-])ccc1Cl + Cc1cc(SCc2sc(-c3ccc(C(F)(F)F)c(F)c3)nc2C)ccc1OCC(=O)O [GW0742] (first compound 2 µM, partner dose 2 µM)",84.1
8,"O=C(Oc1ccc([N+](=O)[O-])cc1)N1CCC(C(O)(c2ccc3c(c2)OCO3)c2ccc3c(c2)OCO3)CC1 + O=c1cc(-c2cccc3c2Sc2ccccc2S3)oc(N2CCOCC2)c1 [KU55933] (first compound 1 µM, partner dose 1 µM)",103
9,"C[C@]1(c2nc3c(C(N)=O)cccc3[nH]2)CCCN1 [Veliparib] + C/C(O)=C(\C#N)C(=O)Nc1cc(Br)ccc1Br [LFM-A13] (first compound 1.4 µM, partner dose 2 µM)",110
10,"O=C(Nc1ccccc1)c1cc([N+](=O)[O-])ccc1Cl + O=C(Oc1ccc([N+](=O)[O-])cc1)N1CCC(C(O)(c2ccc3c(c2)OCO3)c2ccc3c(c2)OCO3)CC1 [JZL184] (first compound 2 µM, partner dose 1 µM)",92
11,"CCc1ccc(CCOc2ccc(CC3SC(=O)NC3=O)cc2)nc1 (configuration not stated) [pioglitazone] + O=C(Oc1ccc([N+](=O)[O-])cc1)N1CCC(C(O)(c2ccc3c(c2)OCO3)c2ccc3c(c2)OCO3)CC1 [JZL184] (first compound 2 µM, partner dose 1 µM)",103
12,"O=C(Nc1cc(C(F)(F)F)cc(C(F)(F)F)c1)c1cc(Cl)ccc1O + Cn1cc(C2=C(c3cn(C4CCN(Cc5ccccn5)CC4)c4ccccc34)C(=O)NC2=O)c2ccccc21 [Enzastaurin] (first compound 0.016 µM, partner dose 0.8 µM)",96.6
13,"Cc1ccc(Nc2nccc(N(C)c3ccc4c(C)n(C)nc4c3)n2)cc1S(N)(=O)=O [Pazopanib] + Cn1cc(C2=C(c3cn(C4CCN(Cc5ccccn5)CC4)c4ccccc34)C(=O)NC2=O)c2ccccc21 [Enzastaurin] (first compound 0.4 µM, partner dose 0.8 µM)",97.2
14,"O=C(Nc1cc(C(F)(F)F)cc(C(F)(F)F)c1)c1cc(Cl)ccc1O + N.N.[Cl][Pt][Cl] [cisplatin] (first compound 0.016 µM, partner dose 1.6 µM)",104
15,"O=C(Nc1cccc(Cl)c1)Nc1ncc(CCNc2ncnc3ccsc23)s1 + O=C(Oc1ccc([N+](=O)[O-])cc1)N1CCC(C(O)(c2ccc3c(c2)OCO3)c2ccc3c(c2)OCO3)CC1 [JZL184] (first compound 0.0008 µM, partner dose 1 µM)",112
16,"N#Cc1c(O)c2c(-c3ccc(-c4ccccc4O)cc3)csc2[nH]c1=O + Cc1cc(SCc2sc(-c3ccc(C(F)(F)F)c(F)c3)nc2C)ccc1OCC(=O)O [GW0742] (first compound 2 µM, partner dose 2 µM)",91.6

row,Compound,cell count [%]
1,"O=C(Nc1cccc(Cl)c1)Nc1ncc(CCNc2ncnc3ccsc23)s1 + Cc1cc(SCc2sc(-c3ccc(C(F)(F)F)c(F)c3)nc2C)ccc1OCC(=O)O [GW0742] (first compound 0.0008 µM, partner dose 2 µM)",100
2,"O=C(Oc1ccc([N+](=O)[O-])cc1)N1CCC(C(O)(c2ccc3c(c2)OCO3)c2ccc3c(c2)OCO3)CC1 + Cn1cc(/C=C2\C(=O)Nc3cccnc32)c2ccccc21 [GW441756] (first compound 1 µM, partner dose 0.4 µM)",100
3,"Cn1cnc2c(F)c(Nc3ccc(Br)cc3Cl)c(C(=O)NOCCO)cc21 [selumetinib] + C[As](C)SC[C@H](NC(=O)CC[C@H](N)C(=O)O)C(=O)NCC(=O)O [Darinaparsin] (first compound 0.015 µM, partner dose 0.4 µM)",2.43
4,"CN(C)S(=O)(=O)c1ccc2c(c1)/C(=C/c1cc3c([nH]1)CCCC3)C(=O)N2 + Cc1cc(SCc2sc(-c3ccc(C(F)(F)F)c(F)c3)nc2C)ccc1OCC(=O)O [GW0742] (first compound 0.4 µM, partner dose 2 µM)",98.6
5,"C/C(O)=C(\C#N)C(=O)Nc1cc(Br)ccc1Br + CC(C)CCN1c2nc(Nc3cc(F)c(O)c(F)c3)ncc2N(C)C(=O)C1C [BID1870] (first compound 2 µM, partner dose 0.2 µM)",87.9
6,"Cc1cc(N2CCOCC2)cc2[nH]c(-c3c(NC[C@@H](O)c4cccc(Cl)c4)cc[nH]c3=O)nc12 + C/C(O)=C(\C#N)C(=O)Nc1cc(Br)ccc1Br [LFM-A13] (first compound 0.2 µM, partner dose 2 µM)",116
7,"CN(C)S(=O)(=O)c1ccc2c(c1)/C(=C/c1cc3c([nH]1)CCCC3)C(=O)N2 + O=C(Oc1ccc([N+](=O)[O-])cc1)N1CCC(C(O)(c2ccc3c(c2)OCO3)c2ccc3c(c2)OCO3)CC1 [JZL184] (first compound 0.4 µM, partner dose 1 µM)",85.9
8,"C/C(O)=C(\C#N)C(=O)Nc1cc(Br)ccc1Br + O=c1cc(-c2cccc3c2Sc2ccccc2S3)oc(N2CCOCC2)c1 [KU55933] (first compound 2 µM, partner dose 1 µM)",120
9,"C/C(O)=C(\C#N)C(=O)Nc1cc(Br)ccc1Br + CCCCCCCCCCCC1=C(O)C(=O)C=C(O)C1=O [Embelin] (first compound 2 µM, partner dose 1.2 µM)",123
10,"C/C(O)=C(\C#N)C(=O)Nc1cc(Br)ccc1Br + O=C(Oc1ccc([N+](=O)[O-])cc1)N1CCC(C(O)(c2ccc3c(c2)OCO3)c2ccc3c(c2)OCO3)CC1 [JZL184] (first compound 2 µM, partner dose 1 µM)",112
11,"N#Cc1c(O)c2c(-c3ccc(-c4ccccc4O)cc3)csc2[nH]c1=O + O=C(Oc1ccc([N+](=O)[O-])cc1)N1CCC(C(O)(c2ccc3c(c2)OCO3)c2ccc3c(c2)OCO3)CC1 [JZL184] (first compound 2 µM, partner dose 1 µM)",92.1
12,"Cn1nnc2c(C(N)=O)ncn2c1=O [temozolomide] + Cc1cc(SCc2sc(-c3ccc(C(F)(F)F)c(F)c3)nc2C)ccc1OCC(=O)O [GW0742] (first compound 2 µM, partner dose 2 µM)",84
13,"NC1(c2ccc(-c3nc4ccn5c(=O)[nH]nc5c4cc3-c3ccccc3)cc2)CCC1 + C[As](C)SC[C@H](NC(=O)CC[C@H](N)C(=O)O)C(=O)NCC(=O)O [Darinaparsin] (first compound 0.4 µM, partner dose 0.4 µM)",67.6
14,"COc1ccc(-c2ccc3c(N4CCOCC4)nc(N4C[C@@H](C)O[C@@H](C)C4)nc3n2)cc1CO + O=C(Oc1ccc([N+](=O)[O-])cc1)N1CCC(C(O)(c2ccc3c(c2)OCO3)c2ccc3c(c2)OCO3)CC1 [JZL184] (first compound 0.02 µM, partner dose 1 µM)",120
15,"Cc1ccc(NC(=O)c2cccc(N(C)C)c2)cc1NC(=O)c1ccc(O)cc1 + O=C(Oc1ccc([N+](=O)[O-])cc1)N1CCC(C(O)(c2ccc3c(c2)OCO3)c2ccc3c(c2)OCO3)CC1 [JZL184] (first compound 2 µM, partner dose 1 µM)",85
16,"Cn1sc(=O)n(Cc2ccccc2)c1=O + C[C@]12O[C@H](C[C@]1(O)CO)n1c3ccccc3c3c4c(c5c6ccccc6n2c5c31)CNC4=O [Lestaurtinib] (first compound 0.4 µM, partner dose 0.004 µM)",102
